# Laboratory results: the supplement of paper PMC7125110
# ± gives the standard error. Variants at the floor of the assay are shown more often than the library holds them.
# B1: glmS ribozyme (parent)
# chain: AUAAAAGCGCCAGAACUACAGAAAUGUAGUUGACGAGGAGGAGGUUUAUCGAAUUUUCGGCGGAUGCCUCCAAA
# Variants of: B1
# Assay: self-cleavage kobs at 2500 uM GlcN6P; higher = faster cleavage; RNA array
# Settings: with glucosamine-6-phosphate
# Method in brief: (§1)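 Ribozyme variants carrying barcodes were transcribed in situ on sequenced MiSeq chips by E. coli RNA polymerase and tracked at 37 °C with a hybridised Cy3 probe. They were exposed to 40 μM to 10 mM glucosamine-6-phosphate in HEPES/KCl/Mg(OAc)2 buffer. kobs came from exponential decay fits of normalised per-tile medians, and kcat and KM from weighted Michaelis–Menten fits.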
row,Variant,self-cleavage kobs at 2500 uM GlcN6P [s⁻¹]
1,AUAAAAGCGCCAGAACUACAGAAAUGUAGUCGACGAGGAGGAGGUUUAUCGAAUUUUCAGCGGAUUCCUCCAAA,< 1e-05
2,AUAAAAGCGCCAGAACUACAGAAAUGUAGUAGACAAGGAGGAGGUUGAUCGAAUUUUCGGCGGAGGCCUCCAAA,< 1e-05
3,AUAAAAGCGCCAGAACUACAGAAAUGUAGGUUACAAGGAGGAGGUUUAUCGAGUUUUCGGCGGAUGCCUCCAAA,< 1e-05
4,AUAAAAGCGCCAGAACUACAGAAAUGUAGUUCACGAGGAGGGGGUAUAUCGAAUUUUCGGCGGAUGCCUCCAAA,< 1e-05
5,AUAAAAGCGCCAGAACUACAGAAAUGUAGUGGACGAGGAGGAGGUUUAUCGAAUUUUCGGCGCAUGCCUCCAAA,< 1e-05
6,AUAAAAGCGCCAGAACUACAGAAAUGUAGGUGACGAGGAGGAGCUUUAUCGAAUUUUCGGCGGAUGCCUUCAAA,< 1e-05
7,AUAAAAGCGCCAGAACUACAGAAAUGUAGGUGACGAGGAGGAGGUUUAUCGAAUUUACGGCGGAUGCCUCCAAA,4.22e-05 ± 1.5e-05
8,AUAAAAGCGCCAGAACUACAGAAAUGUAGUGGACGAGGAGUAGGUUUAUCGAAUUUUGGGCGGAUGCCUCCAAA,< 1e-05
9,AUAAAAGCGCCAGAACUACAGAAAUGUAGUCGACGAGGGGGAGCUUCAUCGAAUUUUCGGCGGAAGCCUCCAAA,< 1e-05
10,AUAAAAGCGCCAGAACUACAGAAAUGUAGUCGAUGAGGAGGAGGUUUAUCGAAUAUUCGGCCGAGGCCUCCAAA,< 1e-05
11,AUAAAAGCGCCAGAACUACAGAAAUGUAGUGGACGAGCAGGAGGUUUAUUGAAUUUUCGGCGGAUGCCUCCAAA,< 1e-05
12,AUAAAAGCGCCAGAACUACAGAAAUGUAGUUCACCAGGAGGAGGUUUAUCGAAUUCUCGGCGGAUGCCUCCAAA,< 1e-05
13,AUAAAAGCGCCAGAACUACAGAAAUGUAGUCGACGAGGAGGAGGUUUAUCGAAUUUUCGGCGGAGGCGUCCAAA,< 1e-05
14,AUAAAAGCGCCAGAACUACAGAAAUGUAGUUAACGAGGAGUAGGUUUAUCGAAUUUUCGGCGGAUGCUUCCAAA,< 1e-05
15,AUAAAAGCGCCAGAACUACAGAAAUGUAGUUAACUAGGCGGAGGUUUAUCGAAUUUUCGGCGCAUGCCUCUAAA,< 1e-05
16,AUAAAAGCGCCAGAACUACAGAAAUGUAGUCGACAAGGAGGAGGUUUAUCGUAUUUUCGGCGGAUGCCUCCAAA,< 1e-05
17,AUAAAAGCGCCAGAACUACAGAAAUGUAGCUGACGAGGAUGAGGUUUAUCUAAUUUUCGGCGGAUGCCUCCAAA,< 1e-05
18,AUAAAAGCGCCAGAACUACAGAAAUGUAGUCGACGAGGAGGAGGUUUAUCGAAUUUUCGUCGGAUGCCACCAAA,< 1e-05
19,AUAAAAGCGCCAGAACUACAGAAAUGUAGGUGACGAGGAGUAGGUUUAUCGAAUUUUCUGCGCAUGCCUCCAAA,< 1e-05
20,AUAAAAGCGCCAGAACUACAGAAAUGUAGUCGACGAGGAGGAGGUUUAUCGAAUUUUCGGCUGAUGCCUCCAAA,< 1e-05
21,AUAAAAGCGCCAGAACUACAGAAAUGUAGUGAACGAGGAGGAGGUGUAUCGUAUUUUCGGCGGAUGCCUCCAAA,< 1e-05
22,AUAAAAGCGCCAGAACUACAGAAAUGUAGGAGACAAGGGGGAGGUUUAUCCAAUUUUCAGCGGAUGCCUCCAAA,< 1e-05

row,Variant,self-cleavage kobs at 2500 uM GlcN6P [s⁻¹]
1,AUAAAAGCGCCAGAACUACAGAAAUGUAGGUCACGAGGAGGAGGUUUAUCGAAUUUUCGGCGGAUGCCUCCAAA,0.000149 ± 3e-05
2,AUAAAAGCGCCAGAACUACAGAAAUGUAGUCGCCGAGGAGGAGGUGUAUCGAAUUUUCGGCGGAUGCCUCCAAA,< 1e-05
3,AUAAAAGCGCCAGAACUACAGAAAUGUAGUAGACGAGGCGGAGGUUUAUCGAAUUUUCGGCGCAUGCCUCCAAA,< 1e-05
4,AUAAAAGCGCCAGAACUACAGAAAUGUAGGUGACGAAGAGGACAUUUAUCGAAUUUUCGGCGGAUGCCUGCAAA,< 1e-05
5,AUAAAAGCGCCAGAACUACAGAAAUGUAGUUCACGAGGAGGAGGUUUAUCGAAUUUUCGGUGGGUGCCUCCAAA,< 1e-05
6,AUAAAAGCGCCAGAACUACAGAAAUGUAGUCCACGAGGGGGAGGUUUAUCGAAUUUUCGGCGGAUGCCUCCAAA,0.000381 ± 0.00015
7,AUAAAAGCGCCAGAACUACAGAAAUGUAGGUUACGAGGAGGAGGUGUAUCGAAUUUUUGGCGGAUGCCUCCAAA,< 1e-05
8,AUAAAAGCGCCAGAACUACAGAAAUGUAGUGGAAGAGGAGUAGGUUUAUCGAAUUUUCGGCGGAUGCCUCCAAA,< 1e-05
9,AUAAAAGCGCCAGAACUACAGAAAUGUAGGUGACGAGGUGGAGGUUUAUCGCAUUUUCGUCGGAUGCCUCCAAA,< 1e-05
10,AUAAAAGCGCCAGAACUACAGAAAUGUAGUGGGCGGGGAGGAGGUUUAUCGAACUUUCGGCGGAUGUCUCCAAA,< 1e-05
11,AUAAAAGCGCCAGAACUACAGAAAUGUAGUAGACGAGGAGGAGGUUUAUCAAAUUUUCGGCUGAUGCCUCCAAA,< 1e-05
12,AUAAAAGCGCCAGAACUACAGAAAUGUAGGUGACGAGGAGGAGUUUUAUCGAAUUUUCCGCGGAUGCCUCCAAA,< 1e-05
13,AUAAAAGCGCCAGAACUACAGAAAUGUAGGUGACGAGGAGGAGGUUUAUCGAAUUUUCGGCGCUUGCCUCCAAA,< 1e-05
14,AUAAAAGCGCCAGAACUACAGAAAUGUAGCUGACGAGGAAGAAGUUUAUCGAAUUUUCGGCGGAUGCAUCCAAA,< 1e-05
15,AUAAAAGCGCCAGAACUACAGAAAUGUAGUGGACGAGGUGGAGGUUUAUCGAAUUUUCGGCGGCUGCCUCCAAA,6.17e-05 ± 2.3e-05
16,AUAAAAGCGCCAGAACUACAGAAAUGUAGGUGUCAAGGAGGAGGUUUAUCGAAUUUUCGGCGGGUGCCUCCAAA,< 1e-05
17,AUAAAAGCGCCAGAACUACAGAAAUGUAGUUCAUGAGGAGGAGGUAUAUCGAAUUUUCGGCGGAUGCCUCCAAA,< 1e-05
18,AUAAAAGCGCCAGAACUACAGAAAUGUAGUCGACGAGGAUGAGGUGUAUCGAAUUUUCGGCGGAUGCCUCCAAA,3.61e-05 ± 1.5e-05
19,AUAAAAGCGCCAGAACUACAGAAAUGUAGUAGACGAGGAGGAGGUUUAUCGUAUUUUCGGCGGAUGCCUCCAAA,2.52e-05 ± 1.1e-05
20,AUAAAAGCGCCAGAACUACAGAAAUGUAGUGGACGAGGAGGAGGUUUAUCGAAUUUUCGGAGGAUGACUCCAAA,0.000101 ± 2.8e-05
21,AUAAAAGCGCCAGAACUACAGAAAUGUAGCUGAAGAGGAGGAGGUUUAUCGAAUUUUCGCCGGAUGCUUCCAAA,< 1e-05
22,AUAAAAGCGCCAGAACUACAGAAAUGUAGUAGACGAGGAGGAAUUUUAUCGAAUUUUCGGCGGAUGCCUCCAAA,< 1e-05

row,Variant,self-cleavage kobs at 2500 uM GlcN6P [s⁻¹]
1,AUAAAAGCGCCAGAACUACAGAAAUGUAGUUAACGAGGAGGGGGUUUAUCGAAUUUUGGGUGGAUGCCUUCAAA,< 1e-05
2,AUAAAAGCGCCAGAACUACAGAAAUGUAGUCGACGGGGAGAAGGUUUAUCGAAUUUUCGUCGGAUGCCUCCAAA,< 1e-05
3,AUAAAAGCGCCAGAACUACAGAAAUGUAGUGGACGAGGAGAAGGUUUAUCGAAUUUUCGGCGUAUGCCUCCAAA,< 1e-05
4,AUAAAAGCGCCAGAACUACAGAAAUGUAGGUGACGAGGAGGAGGUUUAGCGAAAUUUCGGCGGAUGCCUCCAAA,4.83e-05 ± 2.3e-05
5,AUAAAAGCGCCAGAACUACAGAAAUGUAGUCGACCAGGAGGAGGUUUAUCGAAUGUUCGGCGGAUGCCUCCAAA,< 1e-05
6,AUAAAAGCGCCAGAACUACAGAAAUGUAGUUCACGAGGAGGAGGUUUAUCGUAUUUUCGCCGGAUGCCUCCAAA,< 1e-05
7,AUAAAAGCGCCAGAACUACAGAAAUGUAGUCGACCCGGAGGAGGUUUAUCGAAUUUUCGGCGGAUGCCUCCAAA,< 1e-05
8,AUAAAAGCGCCAGAACUACAGAAAUGUAGUGGACGAGGAGGACGUUUAACGAAUUUUCGGCGGAUGCCUCCAAA,< 1e-05
9,AUAAAAGCGCCAGAACUACAGAAAUGUAGUGGACAAGGAGGAGGUUUAUCGAAUUUUCGGGGGAUGCCUCCAAA,< 1e-05
10,AUAAAAGCGCCAGAACUACAGAAAUGUAGUCCACGAUGAGCAGGUAUAUCGAUUAUUCGGCGGCUGCCUCCAAA,< 1e-05
11,AUAAAAGCGCCAGAACUACAGAAAUGUAGUUAACGAGCCGGAGGUUUCUCGAAUUUUCUGCGGAUGCCUCCAAA,< 1e-05
12,AUAAAAGCGCCAGAACUACAGAAAUGUAGUUCACGAGGCGGAGGUUUAUCGAAUUUUCGGGGGAUGCCUUCAAA,< 1e-05
13,AUAAAAGCGCCAGAACUACAGAAAUGUAGUCGACGAGGUGGAGGUUUAUCGAAAUUUCGGUGGAUGCCUCCAAA,< 1e-05
14,AUAAAAGCGCCAGAACUACAGAAAUGUAGUGGAGGAGGAGGAGGUCUAUCGAAUUUUCGGCGGAUGUCUCCAAA,< 1e-05
15,AUAAAAGCGCCAGAACUACAGAAAUGUAGUUAACGAGGAGGAGGAUUAUCGAAUUUUCGGGGGAUGCCUCCAAA,< 1e-05
16,AUAAAAGCGCCAGAACUACAGAAAUGUAGUGGACGAGGAGGAGGUUUACCGAAUUUUCGGCGUUUGCCUCCAAA,< 1e-05
17,AUAAAAGCGCCAGAACUACAGAAAUGUAGUUAACGAGGAGGAGGUUUAUCGAAUUUUCGGCGUAUGGCUCCAAA,< 1e-05
18,AUAAAAGCGCCAGAACUACAGAAAUGUAGUAGACGAGUAGGAGGUUUAUCGAAUUUUCGGCGGAUGCUUCCAAA,< 1e-05
19,AUAAAAGCGCCAGAACUACAGAAAUGUAGUAGACGAGUAGUAGGUUUAUCGAAUUUUCGGCGGAUGCCUCCAAA,< 1e-05
20,AUAAAAGCGCCAGAACUACAGAAAUGUAGUUCACGAGGUGGAGGUUUAUCGUAUUUUCGGCGGAUGCCUCCAAA,< 1e-05
21,AUAAAAGCGCCAGAACUACAGAAAUGUAGUGUACGAGGAGGAGGUUUAUCGAAUUUUUGGCGGAUGCCUCCAAA,8.74e-05 ± 2.9e-05

# Variants of: B1
# Assay: self-cleavage kobs at 10000 uM GlcN6P; higher = faster cleavage; RNA array
# Settings: with glucosamine-6-phosphate
# Method in brief: as §1
row,Variant,self-cleavage kobs at 10000 uM GlcN6P [s⁻¹]
1,AUAAAAGCGCCAGAACUACAGAAAUGUAGGUGACGAGGAGGAGGUUUAUCGAAUUUACGGCGGAUGCCUCCAAA,8.3e-05 ± 1.8e-05
2,AUAAAAGCGCCAGAACUACAGAAAUGUAGUCGACGAGGAGGAGGUUUAUCGAAUUUUCGGCUGAUGCCUCCAAA,< 1e-05
3,AUAAAAGCGCCAGAACUACAGAAAUGUAGGUCACGAGGAGGAGGUUUAUCGAAUUUUCGGCGGAUGCCUCCAAA,0.000134 ± 1.6e-05
4,AUAAAAGCGCCAGAACUACAGAAAUGUAGGUGACGAGGAGGAGGUUUAUCGAAUUUUCGGCGCUUGCCUCCAAA,< 1e-05
5,AUAAAAGCGCCAGAACUACAGAAAUGUAGUGGACGAGGUGGAGGUUUAUCGAAUUUUCGGCGGCUGCCUCCAAA,4.91e-05 ± 1.3e-05
6,AUAAAAGCGCCAGAACUACAGAAAUGUAGGUGUCAAGGAGGAGGUUUAUCGAAUUUUCGGCGGGUGCCUCCAAA,< 1e-05
7,AUAAAAGCGCCAGAACUACAGAAAUGUAGUAGACGAGGAGGAGGUUUAUCGUAUUUUCGGCGGAUGCCUCCAAA,8.67e-05 ± 1.5e-05
8,AUAAAAGCGCCAGAACUACAGAAAUGUAGCUGAAGAGGAGGAGGUUUAUCGAAUUUUCGCCGGAUGCUUCCAAA,< 1e-05
9,AUAAAAGCGCCAGAACUACAGAAAUGUAGUGGACGAGGAGGACGUUUAACGAAUUUUCGGCGGAUGCCUCCAAA,< 1e-05
